Laboratory results: the supplement of paper PMC8728848
The other results are listed elsewhere or left out.

Legend:
Assay in all cases: glycan array binding signal (z-score within array); higher = stronger binding
Conditions in all cases: glycan notation: IUPAC condensed, linker removed
Gal3S6S(b1-4)GlcNAc = target: Gal3S6S(b1-4)GlcNAc
Method in brief: (§1)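 Glycan array binding is given as a within-array Z-score, which can be read as non-binding when negative. The arrays, 3228 of them, came from the Consortium for Functional Glycomics database and were retained only where the protein sequence was available. Z-scores were averaged across arrays of the same protein sequence at different concentrations or buffers and across linkers.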

Gal3S6S(b1-4)GlcNAc6S = target: Gal3S6S(b1-4)GlcNAc6S
Method in brief: as §1

Gal4S(b1-4)GlcNAc = target: Gal4S(b1-4)GlcNAc
Method in brief: as §1

Gal4S6S(b1-4)GlcNAc = target: Gal4S6S(b1-4)GlcNAc
Method in brief: as §1

Gal6P(b1-4)GlcNAc = target: Gal6P(b1-4)GlcNAc
Method in brief: as §1

Gal6S(b1-3)GlcNAc = target: Gal6S(b1-3)GlcNAc
Method in brief: as §1

Gal6S(b1-3)GlcNAc6S = target: Gal6S(b1-3)GlcNAc6S
Method in brief: as §1

Gal6S(b1-4)Glc = target: Gal6S(b1-4)Glc
Method in brief: as §1

Gal6S(b1-4)Glc6S = target: Gal6S(b1-4)Glc6S
Method in brief: as §1

Gal6S(b1-4)GlcNAc = target: Gal6S(b1-4)GlcNAc
Method in brief: as §1

Gal6S(b1-4)GlcNAc6S = target: Gal6S(b1-4)GlcNAc6S
Method in brief: as §1

GalNAc(a1-3)Gal = target: GalNAc(a1-3)Gal
Method in brief: as §1

GalNAc(a1-3)GalNAc = target: GalNAc(a1-3)GalNAc
Method in brief: as §1

[1] = target: GalNAc(a1-3)GalNAc(b1-3)Gal(a1-4)Gal(b1-4)Glc
Method in brief: as §1

[2] = target: GalNAc(a1-3)GalNAc(b1-3)Gal(a1-4)Gal(b1-4)GlcNAc
Method in brief: as §1

GalNAc(b1-3)Gal = target: GalNAc(b1-3)Gal
Method in brief: as §1

[3] = target: GalNAc(b1-3)Gal(a1-4)Gal(b1-4)GlcNAc
Method in brief: as §1

[4] = target: GalNAc(b1-3)Gal(a1-4)Gal(b1-4)GlcNAc(b1-3)Gal(b1-4)Glc
Method in brief: as §1

[5] = target: GalNAc(b1-3)Gal(a1-6)Gal(b1-4)Glc
Method in brief: as §1

GalNAc(b1-3)GalNAc = target: GalNAc(b1-3)GalNAc
Method in brief: as §1

GalNAc(b1-3)GlcNAc = target: GalNAc(b1-3)GlcNAc
Method in brief: as §1

GalNAc(b1-4)Gal(b1-4)Glc = target: GalNAc(b1-4)Gal(b1-4)Glc
Method in brief: as §1

GalNAc(b1-4)GlcNAc = target: GalNAc(b1-4)GlcNAc
Method in brief: as §1

[6] = target: GalNAc(b1-4)GlcNAc(b1-2)Man
Method in brief: as §1

[7] = target: GalNAc(b1-4)GlcNAc(b1-2)Man(a1-3)[GalNAc(b1-4)GlcNAc(b1-2)Man(a1-6)]Man(b1-4)GlcNAc(b1-4)GlcNAc
Method in brief: as §1

[8] = target: GalNAc(b1-4)GlcNAc(b1-3)GalNAc(b1-4)GlcNAc
Method in brief: as §1

GalNAc(b1-4)GlcNAc6S = target: GalNAc(b1-4)GlcNAc6S
Method in brief: as §1

GalNAc(b1-6)GalNAc = target: GalNAc(b1-6)GalNAc
Method in brief: as §1

GalNAc3S(b1-4)GlcNAc = target: GalNAc3S(b1-4)GlcNAc
Method in brief: as §1

GalNAc3S(b1-4)GlcNAc3S = target: GalNAc3S(b1-4)GlcNAc3S
Method in brief: as §1

[9] = target: GalNAc3S(b1-4)[Fuc(a1-3)]GlcNAc
Method in brief: as §1

GalNAc4S6S(b1-4)GlcNAc = target: GalNAc4S6S(b1-4)GlcNAc
Method in brief: as §1

GalNAc6S(b1-4)GlcNAc = target: GalNAc6S(b1-4)GlcNAc
Method in brief: as §1

Glc(a1-4)Glc = target: Glc(a1-4)Glc
Method in brief: as §1

[10] = target: Glc(a1-4)Glc(a1-4)Glc(a1-4)Glc
Method in brief: as §1

Glc(a1-6)Glc(a1-6)Glc = target: Glc(a1-6)Glc(a1-6)Glc
Method in brief: as §1

[11] = target: Glc(a1-6)Glc(a1-6)Glc(a1-6)Glc
Method in brief: as §1

Glc(b1-4)Glc = target: Glc(b1-4)Glc
Method in brief: as §1

B1: SP15308A-bot-339-19-339 (Bacteroides ovatus) (protein)
chain: ACNNEWEDEQYEQYISFKSPIPAGGEGVTDIYVRYKEDGKVTYRLPIVVSGSTTNTLDREVHIAVDKDTLETLNIERFSIHRPGLWYTALEEDKYDFPKTVHISAGSSVEQLNIDFNLQGIDMLEKWVLPLTIVDDPSYNYKSHPRKNYAKALLRVIPFNNYSGSYTSSAMKVYTYINGKPDTNARTANKRTGYVINDNTVFFYAGLISEDLDKEVREKYKINVHFNEDGTLHMEQGDPTNKMKFELIGTPTYSKTSVMDATRPYLERRYVQIMFEYDFEDFSYGGNGVDVIPIKYKVEGSMTLQRNINTQIPDEDQQIEW
glycan array binding signal (z-score) (Gal3S6S(b1-4)GlcNAc): -0.342
glycan array binding signal (z-score) (Gal3S6S(b1-4)GlcNAc6S): 0.111
glycan array binding signal (z-score) (Gal4S(b1-4)GlcNAc): 0.159
glycan array binding signal (z-score) (Gal4S6S(b1-4)GlcNAc): -0.453
glycan array binding signal (z-score) (Gal6P(b1-4)GlcNAc): -0.354
glycan array binding signal (z-score) (Gal6S(b1-3)GlcNAc): -0.111
glycan array binding signal (z-score) (Gal6S(b1-3)GlcNAc6S): -0.062
glycan array binding signal (z-score) (Gal6S(b1-4)Glc): 0.17
glycan array binding signal (z-score) (Gal6S(b1-4)Glc6S): 0.024
glycan array binding signal (z-score) (Gal6S(b1-4)GlcNAc): -0.335
glycan array binding signal (z-score) (Gal6S(b1-4)GlcNAc6S): 0.157
glycan array binding signal (z-score) (GalNAc(a1-3)Gal): 0.558
glycan array binding signal (z-score) (GalNAc(a1-3)GalNAc): 1.35
glycan array binding signal (z-score) [1]: -0.02
glycan array binding signal (z-score) [2]: -0.21
glycan array binding signal (z-score) (GalNAc(b1-3)Gal): -0.419
glycan array binding signal (z-score) [3]: 0.107
glycan array binding signal (z-score) [4]: -0.168
glycan array binding signal (z-score) [5]: -0.042
glycan array binding signal (z-score) (GalNAc(b1-3)GalNAc): 0.046
glycan array binding signal (z-score) (GalNAc(b1-3)GlcNAc): 0.254
glycan array binding signal (z-score) (GalNAc(b1-4)Gal(b1-4)Glc): -0.085
glycan array binding signal (z-score) (GalNAc(b1-4)GlcNAc): 1.18
glycan array binding signal (z-score) [6]: -0.103
glycan array binding signal (z-score) [7]: 1.54
glycan array binding signal (z-score) [8]: 0
glycan array binding signal (z-score) (GalNAc(b1-4)GlcNAc6S): -0.085
glycan array binding signal (z-score) (GalNAc(b1-6)GalNAc): -0.485
glycan array binding signal (z-score) (GalNAc3S(b1-4)GlcNAc): -0.022
glycan array binding signal (z-score) (GalNAc3S(b1-4)GlcNAc3S): -0.114
glycan array binding signal (z-score) [9]: -0.125
glycan array binding signal (z-score) (GalNAc4S6S(b1-4)GlcNAc): -0.366
glycan array binding signal (z-score) (GalNAc6S(b1-4)GlcNAc): -0.368
glycan array binding signal (z-score) (Glc(a1-4)Glc): -0.119
glycan array binding signal (z-score) [10]: -0.416
glycan array binding signal (z-score) (Glc(a1-6)Glc(a1-6)Glc): -0.006
glycan array binding signal (z-score) [11]: 0.999
glycan array binding signal (z-score) (Glc(b1-4)Glc): -0.218
